The labels stand for the following.
B1: B2046 (protein)
chain 1: QVQLVQSGAEVKKPGSSVKVSCKASGGAFSIYAISWVRQAPGQGLEWVGEIIPMSGTPKSAPKFQGRVTITADESTTTAYMELSSLRSEDTAFYYCARHFRDCRETSCLYYFDSWGQGTLVTVSS
chain 2: DIQLTQSPSSLSASVGDRVTITCRATHNIVNYLNWYQQKVGNAPKLLIYAASTLQSGVPSRFSGSGSGTEFTLTISSLQPEDFATYYCQQSHSAPRTFGQGTKVEIK
B2: B2042 (protein)
chain 1: EVQLVESGGGLVQPGGSLRLSCAASGFTFSDYDMHWVRQSTEKRLEWVSTIGTSGDTYYPDSVKGRFTISRENAKNSLYLQMNSLSAGDTAVYYCARGGNHDSWSAYYSRLPTWYFDLWGHGTLVTVSS
chain 2: DIQLTQSPSSLSASVGDRVTITCRASQTIRNNLIWYQQKPGKAPKLLIYDASILQSGVPSRFSGSGSGTDFTLTISSLQPEDFATYYCQQSYTMPPITFGQGTRLEIK
B3: B2049 (protein)
chain 1: QVQLVQSRPEAKKPGASVRVSCQASGYTFTTYGIHWVRQAPGQGLEWLGRVSSSNGNPIYAPRFRGRLTMTTDASTSTASMELRSLRSDDTAVYYCARDPTVVAPRDFFDYWGQGTLVTVSS
chain 2: SYELTQPPSVSVAPGQTARITCGGDNIGSKNVHWYQQKPGQAPVLVVFEDSDRPSRIPDRFSGSNSGNTATLTISRVEAGDEADYYCQVWDSSSDPYVFGSGTRVTVL
B4: B2130 (protein)
chain 1: QVQLVQSGAEVKKPGASVKVSCKASGYNFPAYYIHWVRQAPGQGLEWMGWINPNSGDTNSAQRFQGRVSLTRNTSITTAYMELTGLRSYDTAVYFCVRDRRTAPTPTRAWFDVWGQGTLVTVSS
chain 2: QAVVTQEPSLTVSPGGTVTLTCGSSTGAVTSGHYPYWIQQKPGQAPRTLIYDTGNKHSWTPARFSGSLLGGKAALTLSGAQPEDEAEYYCLLSYSGVLYVFGTGTKVTVL
B5: B2048 (protein)
chain 1: QVQLVQSGAEVRKPGASVKVSCKTYGYTFTSYGFSWVRQAPGQGLEWMGWISVYNGNTIYAQKFQGRVTMTTDTSKSTSYMELKSLRSDDTAIYYCTRVLGIYFGADYWGQGTLVTVSS
chain 2: NFMLTQPHSVSESPGKTVTVSCTRSSGSIASNYVLWYQQRPGSAPTTVIFEDDQRPSGVPGRFSGSIDSSSNSASLTISGLKTEDEADYYCQSYDGTNRSWVFGGGTKLTVL
B6: B2128 (protein)
chain 1: EVQLVESGGGLAKPGGSLRLSCAASGFTFRNAWMSWVRQAPGKGLEWVGRMKTKTHGGTTDYAAPVKGRFTISRDDSQNTLYLQINSLKTEDTAVYFCTATLKSSWVQEWSRDHYFGMDLWGRGTTVTVSS
chain 2: DIVMTQSPLSLPVTPGEPASISCRSSQSLLASNGYNYLDWYLQKPGQSPQLLIYFGFNRASGVPGRFSGSGSGTDFTLKISRVEAEDVGVYYCMQALQTPWTFGQGTQVEIK
B7: B2047 (protein)
chain 1: QVQLVQSGTEVKKPGSSVKVSCKTSGGIFSSYGSYGISWVRQAPGQGLEWMGGIIPIFGSTTFAQQFQGRVTITADESTTTVYMELSSLRSDDTAFYYCASGPSTYHDFWSGYSFDYWGQGTLVTVSS
chain 2: EIVLTQSPGTLSLSPGERATLSCRASQSVSSTHLAWYQQRPGQAPRLLIHGASTRATGISERFSGSGSGTDFTLTISRLEPEDFAVYYCQQYGNSPFTFGPGTKVDIK
B8: B2127 (protein)
chain 1: EVQLVESGGGLVRPGGSLRLSCVASGFSFSSYDMHWVRQSAEKGLEWVSTIGTSGDTYYADSVKGRFTISRQNDKNSLYLQMNGLTAGDTAVYYCTRGSPAVTTVFDYWGQGTLVTVSS
chain 2: DIQMTQSPVSLSASIGDRVTITCRASQSVSRYLNWYQVKPGKAPKLLIYGASNLQSGVSSRFSGSGSGTDFTLTISTLQPEDFATYYCQQSYVNPGVTFGPGTKLDIK
B9: B2129 (protein)
chain 1: EVQLVESGGGLVQPGGSLRLSCAASGFTFSSDDMHWVRQVKGEGLEWVSGIGTSGDTYYRGAVKGRFTISREDAKNSVYLQMNSLRAGDTAVYYCARGGWDGRNYYFDYWGQGVLVTVSS
chain 2: DIQLTQSPSSLSASVGDRVTITCRASQIINKFLNWYQQRPGKAPKLLIYGASTLHSGVPSRFSGSGSGTDFTLTISSLQPEDFATYYCQQSYSSPPWTFGPGTKVEIK
B10: B2011 (protein)
chain 1: QLQLQESGPRLVKPSETLSLTCTVSGGPTISSSNYWGWIRQPPGKGLEWIGSVYYSGDTSYNPALQSRVTISVDTSKNQFSMKLTSVTAADTAVYYCAKLFCGGHCPLEYWGQGTLVTVSS
chain 2: DIQMTQSPSTLSASVGDRVTITCRASQSISTWLAWYQQKPGRAPKLLIYDASNLESGVPSRFSGSGSGTEFTLTINSLQADDFATYHCHQYSSSSQTFGQGTKLEIK
B11: B2044 (protein)
chain 1: QLVQSGPEVKKPGTSVKVSCRSSGFTFFSISAVQWVRQARGQRLEWIGWIVIGSGNTDYAQNFQGRVSLTGDLSTSTAYMELSSLRSDDTAVYYCAAPDCSRTTCLDGFDIWGQGTMVTVSS
chain 2: EIVLTQSPGTLSLSPGERATLSCRASQSVSRSYLAWYKQKPGQAPRLLIYAASSRATGIPDRFSGSGSGTDFTLTIRRLEPEDFAVYYCQQYGSSPWTFGQGTKVEIK
B12: B2050 (protein)
chain 1: QVQLQESGPGLVKPSETLSLTCTVSGGSISTYYWSWLRQPPGKGLEWIGYIFNSGGTNYHPSLRSRVTMSVDTSNNQFSLTLRSVTAADTAVYYCARDLGYDTSGPDAFQIWGQGTMVTVSS
chain 2: EIVLTQSPATLSLSPGERATLSCRASQSVYTYLAWYQHKPGQAPRLLIYDASTRATGIPARFSGSGSGTDFTLTISSLEPADFAVYYCQQRSNWPGTFGQGTKVEIK
B13: B2043 (protein)
chain 1: QVQLVQSGAEVKKPGSSVKVSCKASGGTLSSTAISWVRQAPGQGPEWMGRIIPIFGTTDYAPNFQGRVSITADESTTTVYMELSSLTFQDSALYYCARDHEVAPLYGMDVWGQGTTVTVSS
chain 2: DIQMTQSPSSLSASVGDRVTITCRASQSISRFLNWYQQKPGKAPELLIYGTSTLQDGVPPRFSGSGSGTDFTLTISSLQPEDFATYYCQQSYSIPPITFGQGTRLDIK
B14: B2051 (protein)
chain 1: EVQLVESGGGLVQPGRSLRLSCAASGFTFDDYTMHWVRQAPGKGLEWVSGITSNGGIIGFADSVKGRFIISRDNAKNSLYLQMNSLRAEDTAFYYCAKDMAGVVLLGVEENYGMDVWGQGTTVTVSS
chain 2: SYELTQPPSVSGAPGKTARITCGGNNIGSKSVRWYQQKPGQAPVLVIYYDSDRPSGIPERFSGSNSGNTATLTIGRVEAGDEADYYCQVWDSSSDHVVFGGGTKLTVL

Recombinant human monoclonal antibodies (heavy:light variable regions). ELISA EC50 on the named antigen, from 10 µg/ml down; IC50 / IC90 against spike pseudovirus on 293T-ACE2 cells, 48 h; lower = stronger. Calls: IC50 above 1,000 ng/ml = non-neutralizing; EC50 above 1,000 ng/ml = non-binder. The source prints 1000 for neutralization that was not reached; it is given as >1000 ng/ml. Only binders of the Wuhan-Hu-1 domain have neutralization values.

The target of the first assay is SARS-CoV-2 Wuhan-Hu-1 spike pseudovirus. The experiment in a line: pseudovirus neutralization IC50; higher = weaker neutralization. On the procedure:
(§1)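 Single-round luciferase reporter pseudovirus mixed with antibody dilutions and put on 293T-ACE2 cells for 48 h; signal relative to no-antibody wells, four-parameter fit.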
For the molecule B1, the “pseudovirus neutralization IC50” value was 0.0206 µg/mL.

With B2, the “pseudovirus neutralization IC50” value is over 1 µg/mL.

Consider B3, for which the “pseudovirus neutralization IC50” value was over 1 µg/mL.

As to B4, the “pseudovirus neutralization IC50” value stood at 0.819 µg/mL.

On to B5, for which the “pseudovirus neutralization IC50” value is 0.0221 µg/mL.

In the case of B6, the “pseudovirus neutralization IC50” value came to 0.00609 µg/mL.

Take B7: the “pseudovirus neutralization IC50” value is over 1 µg/mL.

For B8, the “pseudovirus neutralization IC50” value is over 1 µg/mL.

B9: the “pseudovirus neutralization IC50” value is over 1 µg/mL.

Turning to B10, the “pseudovirus neutralization IC50” value is over 1 µg/mL.

On to B11, for which the “pseudovirus neutralization IC50” value is 0.00486 µg/mL.

As for B12, the “pseudovirus neutralization IC50” value is over 1 µg/mL.

As to B13, the “pseudovirus neutralization IC50” value is 0.0891 µg/mL.

As to B14, the “pseudovirus neutralization IC50” value came out at 0.0212 µg/mL.

For a further assay the target is unchanged. Put plainly: pseudovirus neutralization IC90; higher = weaker neutralization. On the procedure:
as §1
On to B1, for which the “pseudovirus neutralization IC90” value was found to be 0.107 µg/mL.

In the case of B2, the “pseudovirus neutralization IC90” value is over 1 µg/mL.

On to B3, for which the “pseudovirus neutralization IC90” value is over 1 µg/mL.

For B4, the “pseudovirus neutralization IC90” value was over 1 µg/mL.

On to B5, for which the “pseudovirus neutralization IC90” value is over 1 µg/mL.

Consider B6, for which the “pseudovirus neutralization IC90” value was 0.029 µg/mL.

In the case of B7, the “pseudovirus neutralization IC90” value is over 1 µg/mL.

As to B8, the “pseudovirus neutralization IC90” value was over 1 µg/mL.

Consider B9, for which the “pseudovirus neutralization IC90” value was over 1 µg/mL.

As for B10, the “pseudovirus neutralization IC90” value was over 1 µg/mL.

Take B11: the “pseudovirus neutralization IC90” value worked out at 0.0193 µg/mL.

Turning to B12, the “pseudovirus neutralization IC90” value was over 1 µg/mL.

B13: the “pseudovirus neutralization IC90” value was over 1 µg/mL.

Take B14: the “pseudovirus neutralization IC90” value worked out at 0.205 µg/mL.

The next assay concerns the target SARS-CoV-2 Delta (B.1.617.2) spike RBD. Put plainly: ELISA binding EC50; higher = weaker binding; ELISA of recombinant human antibody on coated antigen, from 10 µg/ml in fourfold dilutions; four-parameter fit. (In an ELISA, binding on a coated surface is turned into a signal by an enzyme label.)
Consider B1, for which the “ELISA binding EC50” value came out at 0.00388 µg/mL.

For the molecule B2, the “ELISA binding EC50” value came out at 0.0165 µg/mL.

Regarding B3, the “ELISA binding EC50” value came to 0.0102 µg/mL.

Regarding B4, the “ELISA binding EC50” value is over 1 µg/mL.

For the molecule B5, the “ELISA binding EC50” value turned out to be 0.0182 µg/mL.

With B6, the “ELISA binding EC50” value was 0.00365 µg/mL.

Take B7: the “ELISA binding EC50” value is 0.00863 µg/mL.

Regarding B8, the “ELISA binding EC50” value came to 0.00625 µg/mL.

For B9, the “ELISA binding EC50” value turned out to be 0.0226 µg/mL.

Take B10: the “ELISA binding EC50” value is 0.0277 µg/mL.

Turning to B11, the “ELISA binding EC50” value worked out at 0.00365 µg/mL.

As to B12, the “ELISA binding EC50” value amounted to 0.00714 µg/mL.

Turning to B13, the “ELISA binding EC50” value was 0.00468 µg/mL.

Take B14: the “ELISA binding EC50” value stood at 0.011 µg/mL.

The target in the next assay is SARS-CoV-2 Omicron BA.1 spike protein. The assay is described as above.
For the molecule B1, the “ELISA binding EC50” value was over 1 µg/mL.

For the molecule B2, the “ELISA binding EC50” value came to 0.0357 µg/mL.

With B3, the “ELISA binding EC50” value is 0.00953 µg/mL.

Regarding B4, the “ELISA binding EC50” value was over 1 µg/mL.

In the case of B5, the “ELISA binding EC50” value amounted to 0.0466 µg/mL.

In the case of B6, the “ELISA binding EC50” value was over 1 µg/mL.

Consider B7, for which the “ELISA binding EC50” value stood at 0.00407 µg/mL.

Turning to B8, the “ELISA binding EC50” value amounted to 0.0196 µg/mL.

For the molecule B9, the “ELISA binding EC50” value was found to be 0.06 µg/mL.

Consider B10, for which the “ELISA binding EC50” value amounted to 0.00965 µg/mL.

For B11, the “ELISA binding EC50” value is 0.00157 µg/mL.

On to B12, for which the “ELISA binding EC50” value stood at 0.0191 µg/mL.

On to B13, for which the “ELISA binding EC50” value was determined as 0.00243 µg/mL.

Consider B14, for which the “ELISA binding EC50” value was 0.00616 µg/mL.

Another assay addresses SARS-CoV-2 Wuhan-Hu-1 spike receptor-binding domain. The assay is described as above.
As for B1, the “ELISA binding EC50” value was 0.00435 µg/mL.

On to B2, for which the “ELISA binding EC50” value was found to be 0.00257 µg/mL.

In the case of B3, the “ELISA binding EC50” value was determined as 0.00171 µg/mL.

Take B4: the “ELISA binding EC50” value was 0.00393 µg/mL.

Consider B5, for which the “ELISA binding EC50” value was 0.00515 µg/mL.

For B6, the “ELISA binding EC50” value is 0.0028 µg/mL.

With B7, the “ELISA binding EC50” value was 0.00309 µg/mL.

Regarding B8, the “ELISA binding EC50” value was found to be 0.00205 µg/mL.

Regarding B9, the “ELISA binding EC50” value was found to be 0.00386 µg/mL.

As for B10, the “ELISA binding EC50” value worked out at 0.00313 µg/mL.

Regarding B11, the “ELISA binding EC50” value worked out at 0.00251 µg/mL.

Turning to B12, the “ELISA binding EC50” value was determined as 0.00265 µg/mL.

Consider B13, for which the “ELISA binding EC50” value worked out at 0.00315 µg/mL.

B14: the “ELISA binding EC50” value was 0.00105 µg/mL.

The values above are taken from the supplement of paper PMC9513381.
